25 compounds from PubChem BioAssay AID463173 (ICCB-Longwood Screening Facility, Harvard Medical School, 2010) can be followed below.

Among all 52,000 compounds or so, about 4,300 (8.3%) were called active. Cut-off read from the data, not from the text of the source: active = survival mostly below about 52% (no sharp cut-off); inactive = mostly above about 56%. The list shows a part of the results.

The test system of this experiment is DeltatarO mutant. Briefly: S. aureus survival, RN4220 and DeltatarO strains – OD600, teichoic acid synthesis inhibitors, primary screen (AID 463173). The following applies: S. aureus RN4220 wild type/DeltatarO growth, OD600, 18 h, hits give low values, screened at 18.75 µg/mL (by protocol).
On to `CCC(=O)N1CCc2cc(S(=O)(=O)NCCC(=O)NC(C)c3ccccc3)ccc21` (stereo not given), for which the survival was inactive: 85%.

Take `O=C(C1CCN(S(=O)(=O)c2cccc3nonc23)CC1)N1CCN(c2ccc(F)cc2)CC1`: the survival is inactive: 91%.

As to `O=C(c1ccccc1)c1ccc(C(=O)O)c(C(=O)O)c1`, the survival was inactive: 113%.

Regarding `CCOc1ccc(CNC(=O)CCS(=O)(=O)c2cc3c4c(c2)CCN4C(=O)CC3)cc1`, the survival was inactive: 76%.

As to `CCOC(=O)c1c(C)oc2ncnc(Nc3ccc(CC)cc3)c12`, the survival is inactive: 85%.

As to `CC1CCN(C(=O)CN2CCSc3ccc(S(=O)(=O)N(C)C)cc32)CC1`, the survival was inactive: 96%.

Turning to `O=C(CN1C(=O)S/C(=C\c2ccco2)C1=O)CN1C(=O)S/C(=C\c2ccco2)C1=O`, the survival is inactive: 78%.

On to `O=C(CC1(O)C(=O)N(CCc2ccccc2)c2ccc(Br)cc21)c1ccccc1` (stereo not given), for which the survival was active: 25%.

As for `O=C(OCn1nnc2ccccc2c1=O)C1CCCCC1`, the survival was inactive: 113%.

With `COc1ccc(N(Cc2nnc3n2CCCCC3)C(=O)Nc2ccc(Cl)cc2)cc1Cl`, the survival is inactive: 85%.

Regarding `CCCn1c(SCC(=O)N2CCCC2)nnc1C(C)C`, the survival was inactive: 101%.

With `CCC1CCCCN1C(=O)CSc1n[nH]c(-c2ccccc2)n1` (stereo not given), the survival is inactive: 85%.

`Cc1cccc(OCC(=O)Nc2ccc(OCc3cc(=O)n4cc(C)ccc4n3)cc2)c1`: the survival is inactive: 83%.

Consider `Cc1c(Cl)cccc1NC(=O)C(C)n1nc(C)c2c(C)n(-c3ccccc3)nc2c1=O` (stereo not given), for which the survival was inactive: 91%.

Consider `CNC(=O)c1ccc(-c2nc(CN3CCc4ccccc43)c(C)o2)cc1`, for which the survival was inactive: 80%.

Regarding `CC(=O)Nc1ccc(Nc2nc3ccc(Cl)cc3n3cnnc23)cc1`, the survival was inactive: 99%.

For the compound `CCc1ccc2oc(C(=O)Nc3nc(-c4ccc(F)cc4)ns3)c(C)c2c1`, the survival was inactive: 68%.

Consider `CCOC(=O)c1cccc(NC(=O)CC2C(=O)N(c3ccccc3)C(=O)N2Cc2ccco2)c1` (stereo not given), for which the survival was inactive: 63%.

On to `Cc1nc2nc(C(F)(F)F)[nH]c2cc1Br`, for which the survival is active: 4%.

Turning to `COc1ccc(-c2cc(C(F)(F)F)n3nc(C(=O)OC(C)C)cc3n2)cc1`, the survival is inactive: 89%.

As to `Cc1cc2c(n1-c1ccc(C(=O)NCCc3ccc(Cl)cc3)cc1)CCC(C)C2` (stereo not given), the survival is inactive: 71%.

Take `Cc1c(C2=CCN(S(=O)(=O)c3ccc(Cl)cc3)CC2)c2ccccc2n1CC(=O)N1CCCC1`: the survival is inactive: 57%.

In the case of `Cc1ccccc1CN1CCC(CNC(=O)c2cc3ccc4cccnc4c3[nH]2)CC1`, the survival was inactive: 87%.

As for `COc1ccccc1NC(=O)c1sc2nc(C)c(C(=O)Nc3ccc(Cl)cc3)c(-c3ccc(Br)cc3)c2c1N`, the survival was inactive: 94%.

With `CC(C)(C)C(=O)NC1CC(=O)N(c2ccc3c(c2)OCCO3)C1` (stereo not given), the survival is inactive: 125%.
